Measured values: patent publication US20230021880A1, “Cladribine regimen for treating progressive forms of Multiple Sclerosis” (Merck Patent GmbH, priority 2017, published 2023)

Tests used:
[1] = Drug interaction study with pantoprazole in MS patients; format: in vivo, human; details: 10 mg oral
mice [2] = details: pregnant mice
[3] = Cladribine pharmacokinetics following oral administration
patients with RRMS [4] = test: CLARITY and CLARITY EXT analysis; format: in vivo, human; details: after 2 short treatment courses, 3.5 mg/kg
mice [5] = test: Long-term 22-month carcinogenicity study, subcutaneous; format: in vivo
male mice = test: Male mouse fertility study; format: in vivo
patients with SPMS = test: ONWARD study: Cladribine tablets 3.5 mg/kg added on to IFN-β, SPMS patients; format: in vivo, human
Excerpt: (§1) A supportive study in patients treated with Cladribine as an add-on to interferon-beta vs. placebo+interferon-beta also included a limited number of patients with secondary progressive MS (26 patients). […] There was no difference in annualized relapse rate between patients with relapsing-remitting MS and patients with secondary progressive MS with relapses.
(§2) Patients aged 18-65 years were eligible to enter the ONWARD study if they fulfilled the following criteria. • a diagnosis of RRMS or SPMS with relapses (2005 McDonald criteria) • treatment with IFN-β for ≥48 consecutive weeks before screening, with ≥1 MS relapse during that period • clinical stability (other than relapses) during the 28 days before screening • an Expanded Disability Status Scale. (EDSS) score of 1.0-5.5 • normal hematological parameters within 28 days of baseline (Day 1 of randomization), defined as: platelets, 140-450×10^3/μL; absolute neutrophil count, 2.03-8.36×10^3/μL, absolute lymphocyte count, 1.02-3.36×10^3/μL; white blood cell count, 4.1-123×10^3/μL; haemoglobin, 11.6-16.2 g/dL • Switching from one IFN-β therapy to another was permitted in the 48 weeks before screening if the patient had been on a stable regimen of the current IFN-β≥3 months prior to screening. • Patients were excluded if they bad an infectious or immune-compromising disease, had been previously treated with an immunosuppressive or cytotoxic therapy, or if they were pregnant, breastfeeding or refused to use contraception during the study. • In the study, a dose of Cladribine tablets of 3.5 mg/kg, added to existing IFN-β therapy, were applied. • All analyses were post-hoc and not pre-specified, no multiplicity adjustments were done to the resulting p values. All comparisons where the p value was less than 0.05 by statistical testing should be regarded as nominally significant.
The ONWARD study confirmed the safety and tolerability of Cladribine tablets (3.5 mg/kg) administered as an add on to interferon-β (IFN-β) therapy as a primary endpoint in patients who experienced at least, one relapse on IFN-β. […]

patients with RRMS [6] = test: ONWARD study: Cladribine tablets 3.5 mg/kg added on to IFN-β, RRMS patients; format: in vivo, human
Excerpt: as §1, §2
The ONWARD study confirmed the safety and tolerability of Cladribine tablets (3.5 mg/kg) administered as an add on to interferon-β (IFN-β) therapy as a primary endpoint in patients who experienced at least, one relapse on IFN-β. […] The inclusion of patients with SPMS in ONWARD provided an opportunity to confirm the efficacy of treatment with Cladribine tablets 3.5 mg/kg vs placebo added on to IFN-β in these patients. The objective was to confirm the effect of Cladribine tablets 3.5 mg/kg in patterns with SPMS or RRMS in the ONWARD study.

rabbits = test: Reproduction toxicity; format: in vivo
clinical = details: human, in vivo
mammalian cells = test: Clastogenicity (chromosomal damage) in vitro; format: cell-based
Description: Cladribine is incorporated into DNA strands and inhibits DNA synthesis and repair. […] In vivo clastogenicity in mice was detected at 10 mg/kg, which was the lowest dose tested.

[7] = SPMS, Cladribine tablets 3.5 mg/kg + IFN-β
[8] = RRMS, Cladribine tablets 3.5 mg/kg + IFN-β

SMILES: Nc1nc(Cl)nc2c1ncn2[C@H]1C[C@H](O)[C@@H](CO)O1 [Cladribine, 2-chloro-2′deoxyadenosine]
- bioavailability when co-administered with pantoprazole [1]: not altered
- inductive effect on CYP1A2 (CYP1A2): no clinically meaningful inductive effect
- embryo lethality (mice [2]): embryo lethal
- accumulation of concentration in plasma after repeated dosing ([3]; in vivo): No significant accumulation
- Cmax and AUC increase with dose ([3]; oral dose range 3 to 20 mg): dose-proportional
- additional time off therapy for which efficacy in reducing relapses and slowing EDSS progression is maintained (patients with RRMS [4]): at least 2 years
- exposure multiple vs expected human AUC at maximum daily dose of 20 mg (mice [5]; 10 mg/kg in mice): approximately 16 fold
- tumor incidence (mice [5]; 22-month, subcutaneous, highest dose 10 mg/kg, mice): No increased incidence of lymphoproliferative disorders or other tumor types
- testicular effects (male mice; male mice): reduced testicular weights and increased numbers of non-mottle sperm
- fertility of male mice (male mice; mouse, in vivo): did not affect the fertility of male mice
- less likely to have a qualifying relapse than placebo (patients with SPMS; SPMS patients): 89%
- Mean number of T2 lesions per patient per scan, Mean (SD) (patients with SPMS; [7]): 0.29 (0.52)
- Most number of new T1 Gd+ lesions per patient per scan, Mean (SD) (patients with SPMS; [7]): 0.13 (0.55)
- less likely to have a qualifying relapse than placebo (patients with RRMS [6]; RRMS patients): 50%
- annualized relapse rate (patients with RRMS [6]; RRMS, Cladribine 3.5 mg/kg + IFN-β): 0.15
- Mean number of T2 lesions per patient per scan, Mean (SD) (patients with RRMS [6]; [8]): 0.58 (1.40)
- Most number of new T1 Gd+ lesions per patient per scan, Mean (SD) (patients with RRMS [6]; [8]): 0.05 (0.31)
- teratogenicity (rabbits): teratogenic
- CL renal (clinical): 370 mL/min
- half-life (clinical): ~1440 min
- clastogenic concentration relative to the expected clinical Cmax (mammalian cells): 17 fold
